{"source": "the supplement of paper PMC11417369", "note": "The other results are listed elsewhere or left out."}
{"system": "PfAP2-HC AP2 domain (GST-tagged)", "test": "gcPBM binding intensity (ln(normalized median fluorescence intensity)); higher = stronger DNA binding", "outline": "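An Agilent 4 × 180k array of primer-extended double-stranded 36-bp intergenic genomic probes, with negative controls, was incubated for 1 h with GST-tagged P. falciparum DNA-binding domains expressed in E. coli. Alexa488 anti-GST antibody detected bound protein, scanned at 488 nm. Binding intensity is the highest Masliner-normalised natural-log median intensity across replicate spots of either probe orientation.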"}
{"sequence": "TTTTATTTTTCTAGTAGTACTTCTTTTTATAATATA [XGTACX_site1181]", "gcPBM binding intensity (ln)": 9.66}
{"sequence": "AGTTTACACCTTGTGAGTACATACATACATATATAT [XGTACX_site8793]", "gcPBM binding intensity (ln)": 10.2}
{"sequence": "TTAACATTTTAAAAATGTACATTTATATACATAAAT [XGTACX_site922]", "gcPBM binding intensity (ln)": 9.37}
{"sequence": "AGAAAAATTCTAAGAACATGCAAAAAAATAAAAAAA [TGCATGCA_site293]", "gcPBM binding intensity (ln)": 9.53}
{"sequence": "TCTAATGTAATGCATACACACAACTATCCATCAAAA [CACACA_site534]", "gcPBM binding intensity (ln)": 9.74}
{"sequence": "AAAAAATAAATAAATATACACACCATATATATATTT [CACACA_site2854]", "gcPBM binding intensity (ln)": 10}
{"sequence": "CTTTGTAGTTGGTCCACACACATATATGGAAGAATA [CACACA_site1280]", "gcPBM binding intensity (ln)": 9.93}
{"sequence": "ATATATATATATATATATATATATATATTTATATAT [GTGCAC_negctrl_site180]", "gcPBM binding intensity (ln)": 9.38}
{"sequence": "TAATAATAGAGACACACACACATTTTTAATAATACA [CACACA_site6691]", "gcPBM binding intensity (ln)": 10.5}
{"sequence": "TTTTTTTTTTTTTTGTCACACACCTTCATAAGAAAA [CACACA_site1166]", "gcPBM binding intensity (ln)": 9.51}
{"sequence": "CACACCATATAATATATATATATGTATATATTTATA [CACACA_negctrl_site397]", "gcPBM binding intensity (ln)": 9.67}
{"sequence": "TAAAAGGAACAAAATTGTACTTAAAAGACAAAGTTA [XGTACX_site7661]", "gcPBM binding intensity (ln)": 9.56}
{"sequence": "ACACAAAAATAAAAATGTACAAATTAAAAAAAATGA [XGTACX_site2083]", "gcPBM binding intensity (ln)": 10}
{"sequence": "TTTGTTCTATGGAGTTTAAAATGTAATATATATTAA [GTGCAC_negctrl_site151]", "gcPBM binding intensity (ln)": 9.43}
{"sequence": "ATCCTGAACAGAATATGTATAAACAGAAGGAAACAA [CACACA_negctrl_site1805]", "gcPBM binding intensity (ln)": 9.85}
{"sequence": "ATATATATTAATAGTTGTACTATTATAATATTACAA [XGTACX_site1213]", "gcPBM binding intensity (ln)": 9.5}
{"sequence": "TATAAGCAAAGACACACACACATATAAATATAAATA [CACACA_site7740]", "gcPBM binding intensity (ln)": 10.5}
{"sequence": "TATAAAATATATATCTGTACGTATTTTATTTTTTAT [XGTACX_site6257]", "gcPBM binding intensity (ln)": 9.75}
{"sequence": "TACAAAATATTTTACACACACATATAAATACCTATA [CACACA_site7272]", "gcPBM binding intensity (ln)": 10.4}
{"sequence": "TATATATATATATGAGTGCATATGTGTAATATAAAA", "gcPBM binding intensity (ln)": 9.81}
{"sequence": "TATATAATTATTTGATGTACACTACAATGTATTTGT [XGTACX_site7991]", "gcPBM binding intensity (ln)": 9.82}
{"sequence": "TTATGTTCTTAATGCACACTTATAAGTATCTTATAA [CACACA_site1394]", "gcPBM binding intensity (ln)": 9.67}
{"sequence": "AATACAATATAAAGGTGTACATATATATATATATAT [XGTACX_site68]", "gcPBM binding intensity (ln)": 10.7}
{"sequence": "ATGTAGATAGATAGGGTGCTAAAAATAAGATTTATA [GTGCAC_site9602]", "gcPBM binding intensity (ln)": 9.62}
{"sequence": "AAAAAAAAAAAAAAAACACACACAACACCCATACCT [CACACA_site9208]", "gcPBM binding intensity (ln)": 10.4}
{"sequence": "TATTTTTATATATGACGTACTCTACAATTATTAATG [XGTACX_site5818]", "gcPBM binding intensity (ln)": 9.6}
{"sequence": "TTTTTTTTTTTTGATGCACACACCTGAACGAGTTAA [CACACA_site317]", "gcPBM binding intensity (ln)": 9.85}
{"sequence": "AAAATATGTATGTAAAGTACTAATATACAAATTTTT [XGTACX_site5186]", "gcPBM binding intensity (ln)": 9.62}
{"sequence": "ATCATTTTTAAAGGAACACACAAAAAAAATTAGAAT [CACACA_site1370]", "gcPBM binding intensity (ln)": 9.78}
{"sequence": "GTTCAAAATATGAACACACACATATAGATTTATATA [CACACA_site7054]", "gcPBM binding intensity (ln)": 9.96}
{"sequence": "AAAGGATATAGACACACACACACATATATATATATA [CACACA_site2200]", "gcPBM binding intensity (ln)": 11.4}
{"sequence": "TGAAAAGTAAAATACACACACATAATATAATTTATA [CACACA_site1989]", "gcPBM binding intensity (ln)": 10.2}
{"sequence": "CATATACATCCACATACACACATACACCCATACACA [CACACA_site5038]", "gcPBM binding intensity (ln)": 10.4}
{"sequence": "ATTATTTTTTTTGTTACACACATGACTTATTTTTAT [CACACA_site3228]", "gcPBM binding intensity (ln)": 10}
{"sequence": "ATATAAATATTCCACACACACACAAAAAAAAAAAAA [CACACA_site7678]", "gcPBM binding intensity (ln)": 11}
{"sequence": "TTAATTATAAGAAAAAGTACTCATTACATTATAGAA [XGTACX_site678]", "gcPBM binding intensity (ln)": 9.46}
{"sequence": "TAGTCGTTTTTTTAATGTACTCACGCATAATATAAT [XGTACX_site6499]", "gcPBM binding intensity (ln)": 9.56}
{"sequence": "CATACATACCTATATACACACATATAAAATAATATA [CACACA_site7290]", "gcPBM binding intensity (ln)": 9.85}
{"sequence": "AGTATACAGATATATACACACATATTTATATTTATA [CACACA_site6394]", "gcPBM binding intensity (ln)": 9.88}
{"sequence": "GGCAACATTTGAAACACACACACATACAAACAAACA [CACACA_site3307]", "gcPBM binding intensity (ln)": 10.3}
{"sequence": "TGTTATTATTTGTACACACACATATATATCCTTGTT [CACACA_site3616]", "gcPBM binding intensity (ln)": 10.8}
{"sequence": "TCTATATGTTGATTCACACATAAAGAATAAATAAAA [CACACA_site6017]", "gcPBM binding intensity (ln)": 9.57}
{"sequence": "AACACGCGCAGACACACACACACACCCACATATATA [CACACA_site2205]", "gcPBM binding intensity (ln)": 10.6}
{"sequence": "TATAATATATTATATACACACATTATGAAATCCACA [CACACA_site1330]", "gcPBM binding intensity (ln)": 9.92}
{"sequence": "TATATGAACTTATATACACACCATTTTTGTAAATCT [CACACA_site4547]", "gcPBM binding intensity (ln)": 9.72}
{"sequence": "ATAAATATATTTTATAGTACATAAATATCAAAAAAA [XGTACX_site2334]", "gcPBM binding intensity (ln)": 9.56}
{"sequence": "AAACAATACTGATATTGTACATAATAAAAAAAAATA [XGTACX_site3330]", "gcPBM binding intensity (ln)": 10}
{"sequence": "ATTTTGATGCATGGGTTGCACTAACTTTTGCCCAGA", "gcPBM binding intensity (ln)": 9.51}
{"sequence": "TACTATATAAGTAAGGCATGCATGCCGATTTTTTTA [TGCATGCA_site100]", "gcPBM binding intensity (ln)": 9.49}
{"sequence": "TTCTTTAATACTTATTGTACAATATAATAATCACAA [XGTACX_site6364]", "gcPBM binding intensity (ln)": 9.7}
{"sequence": "AAAAAAAAAAAAATATGTACTTATTTTTATGTTAAA [XGTACX_site8802]", "gcPBM binding intensity (ln)": 9.28}
{"sequence": "TACTTAAAATATTTAACAAATAAATAAATAAATAAA [XGTACX_negctrl_site523]", "gcPBM binding intensity (ln)": 9.17}
{"sequence": "TGAAACCGTTACATGTGTACATATGTTACACATAAT [XGTACX_site7250]", "gcPBM binding intensity (ln)": 9.7}
{"sequence": "TCACATCTTATATACTGTACATTTCGAATATAAATT [XGTACX_site2508]", "gcPBM binding intensity (ln)": 9.68}
{"sequence": "TTTCTTTTACATATTTGTACATATATAAATTTATAT [XGTACX_site1787]", "gcPBM binding intensity (ln)": 9.91}
{"sequence": "ATATTTTTATTTTCTTTACACACCACATAATTTTTT [CACACA_site4060]", "gcPBM binding intensity (ln)": 10.1}
{"sequence": "TCTAACAACATGCGCACACACATGAATATTCATATT [CACACA_site1540]", "gcPBM binding intensity (ln)": 10.4}
